The RNAGym collection of RNA variant scans (doi:10.1073/pnas.2313332121)
Variants at the background level are over-represented here.

B1: TPR 5TU (parent)
chain: GGAUCUUCUCGAUCUAACAAAAAAGACAAAUCUGCCACAAAGCUUGAGAGCAUCUUCGGAUGCAGAGGCGGCAGCCUUCGGUGGCGCGAUAGCGCCAACGUUCUCAACUAUGACACGCAAAACGCGUGCUCCGUUGAAUGGAGUUUAUCAUG

Variants of: B1
Test: polymerase ribozyme fitness, log enrichment relative to wild type (log ratio); higher = more active; in vitro selection for triplet polymerase activity
In short: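 Fitness compares each genotype's enrichment to that of the wild type on a logarithmic scale, averaging replicates with inverse-variance weights. The logarithm is base 2. Enrichment came from Illumina sequencing of input and output libraries after one triplicate round of in vitro selection, which included frozen incubation at −7 °C, of PCR-built, transcribed mutant libraries of each subunit of a heterodimeric triplet polymerase ribozyme. Only genotypes with ≥10 input reads and ≥1 read per output were kept.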

With A29U U44A C75G as the variant, how does the “polymerase ribozyme fitness (log ratio)” value read?
The value was ≤ -4.2.

For U31C G86U U111G C116A, which “polymerase ribozyme fitness (log ratio)” value is on record?
The value was ≤ -4.2.

With A30U U44G A52C C85G A107G G126C U134A A147G as the variant, how does the “polymerase ribozyme fitness (log ratio)” value read?
Its value is ≤ -4.2.

Which “polymerase ribozyme fitness (log ratio)” value does the source give for C32U A49C U53A G58U A91G G117U A119C A138C G141C here?
Its value is ≤ -4.2.

For U31A U45C G71A C87U A97G A142G, which “polymerase ribozyme fitness (log ratio)” value is on record?
The value was ≤ -4.2.

With U33A C76A C95U C105A A137U as the variant, how does the “polymerase ribozyme fitness (log ratio)” value read?
The value was ≤ -4.2.

Which “polymerase ribozyme fitness (log ratio)” value does the source give for U31A G34A G100U C149G here?
Its value is ≤ -4.2.

For U33A C54U G70C C85A A89U C96A A110C G143C A150C, which “polymerase ribozyme fitness (log ratio)” value is on record?
Its value is ≤ -4.2.

For C32A U33G C54G U78A C87A C105G A115G, which “polymerase ribozyme fitness (log ratio)” value is on record?
The value was ≤ -4.2.

With A29U G94U U109A as the variant, how does the “polymerase ribozyme fitness (log ratio)” value read?
The value was ≤ -4.2.

Which “polymerase ribozyme fitness (log ratio)” value does the source give for U31C A37C U56A G86A C108U here?
The value was ≤ -4.2.

With A30U A106G as the variant, how does the “polymerase ribozyme fitness (log ratio)” value read?
The value was -2.9.

For U31A C32G A41U G67U G80C G86C A147U, which “polymerase ribozyme fitness (log ratio)” value is on record?
Its value is ≤ -4.2.

Which “polymerase ribozyme fitness (log ratio)” value does the source give for C32A A39U G58A C72U G80U G83A here?
Its value is ≤ -4.2.

For A30G U45A U78C G80C A89C G94U, which “polymerase ribozyme fitness (log ratio)” value is on record?
Its value is ≤ -4.2.

For U31G A37U A47C G68A C96A U135A A150C, which “polymerase ribozyme fitness (log ratio)” value is on record?
Its value is ≤ -4.2.

With A30G A47G C87A A121G as the variant, how does the “polymerase ribozyme fitness (log ratio)” value read?
Its value is ≤ -4.2.

With C32G A49C A52U A138U as the variant, how does the “polymerase ribozyme fitness (log ratio)” value read?
Its value is ≤ -4.2.

Which “polymerase ribozyme fitness (log ratio)” value does the source give for A30U C38U C95G G100A C116U here?
Its value is ≤ -4.2.

Which “polymerase ribozyme fitness (log ratio)” value does the source give for U33A A40G U45A C69G G83C C87A G140U A142U here?
Its value is ≤ -4.2.

With A30U U55A as the variant, how does the “polymerase ribozyme fitness (log ratio)” value read?
Its value is -2.96.

For U31G U53G G70U A89U C93U C114A C123G U135C G152U, which “polymerase ribozyme fitness (log ratio)” value is on record?
The value was ≤ -4.2.

With C32A A47U G100U U109G A115U as the variant, how does the “polymerase ribozyme fitness (log ratio)” value read?
The value was ≤ -4.2.

With U33A A47G U53G A89G A107G U134G as the variant, how does the “polymerase ribozyme fitness (log ratio)” value read?
Its value is ≤ -4.2.

With C32U G48C A64U as the variant, how does the “polymerase ribozyme fitness (log ratio)” value read?
The value was ≤ -4.2.

With A30U C75G U101A U111G A119U U139A as the variant, how does the “polymerase ribozyme fitness (log ratio)” value read?
Its value is ≤ -4.2.

For A30C C54A, which “polymerase ribozyme fitness (log ratio)” value is on record?
The value was ≤ -4.2.

For A30C G68U, which “polymerase ribozyme fitness (log ratio)” value is on record?
Its value is ≤ -4.2.

With U33A G48A U56G U82C G94C C116A C125G as the variant, how does the “polymerase ribozyme fitness (log ratio)” value read?
Its value is ≤ -4.2.

Which “polymerase ribozyme fitness (log ratio)” value does the source give for A30C A49U C105U G136A here?
The value was ≤ -4.2.

Which “polymerase ribozyme fitness (log ratio)” value does the source give for A30U U31C G65A C85A C95G C114A U148A here?
The value was ≤ -4.2.

For A29U G81A C99G A119U, which “polymerase ribozyme fitness (log ratio)” value is on record?
The value was ≤ -4.2.

For U33A A37G C105U A106G, which “polymerase ribozyme fitness (log ratio)” value is on record?
The value was -4.07.

With U31C A47C C79U A91U as the variant, how does the “polymerase ribozyme fitness (log ratio)” value read?
Its value is ≤ -4.2.

For C32A A37U U102A A137C A138U G141C, which “polymerase ribozyme fitness (log ratio)” value is on record?
Its value is ≤ -4.2.

For C32U A66C C85U C93U, which “polymerase ribozyme fitness (log ratio)” value is on record?
The value was ≤ -4.2.

For U31A C35U A66C C85G, which “polymerase ribozyme fitness (log ratio)” value is on record?
Its value is ≤ -4.2.

For U33A A41C C87A U130G A147G, which “polymerase ribozyme fitness (log ratio)” value is on record?
Its value is ≤ -4.2.

With C32U C35A G88C A91U G143U as the variant, how does the “polymerase ribozyme fitness (log ratio)” value read?
The value was ≤ -4.2.

With A30C G42U G65A G83A C87G as the variant, how does the “polymerase ribozyme fitness (log ratio)” value read?
The value was ≤ -4.2.

With C32G C79U C96G A142C as the variant, how does the “polymerase ribozyme fitness (log ratio)” value read?
Its value is -3.79.

Which “polymerase ribozyme fitness (log ratio)” value does the source give for C32G G42A G65C C95U C105A A113U A138U U144C here?
Its value is ≤ -4.2.

For U31A U53A G68U C95A C149G, which “polymerase ribozyme fitness (log ratio)” value is on record?
Its value is ≤ -4.2.

Which “polymerase ribozyme fitness (log ratio)” value does the source give for A30G C51A U55A U56A C75U U82A U144C here?
Its value is ≤ -4.2.

With U31G G42C G50C C57A C79G G80C G136C as the variant, how does the “polymerase ribozyme fitness (log ratio)” value read?
The value was ≤ -4.2.

With A30U G68U G94A as the variant, how does the “polymerase ribozyme fitness (log ratio)” value read?
The value was ≤ -4.2.

For C32U G42A G50C G59C G70A U82A G86A A138G, which “polymerase ribozyme fitness (log ratio)” value is on record?
Its value is ≤ -4.2.

For U31G G50U C76U C85A A119U, which “polymerase ribozyme fitness (log ratio)” value is on record?
Its value is ≤ -4.2.

Which “polymerase ribozyme fitness (log ratio)” value does the source give for C32A C85U here?
The value was -4.06.

For U31A A39G G67C C72G C96U A107U A113G A115C U148A, which “polymerase ribozyme fitness (log ratio)” value is on record?
The value was ≤ -4.2.

For A30G G74U C95A U148G, which “polymerase ribozyme fitness (log ratio)” value is on record?
The value was ≤ -4.2.

With A29U U31C C32A A91G G133U as the variant, how does the “polymerase ribozyme fitness (log ratio)” value read?
Its value is ≤ -4.2.

For U31A U55A A97U U145G, which “polymerase ribozyme fitness (log ratio)” value is on record?
Its value is -0.219.

With A30U C43U U44G G46U A64C C75U C87U C132U as the variant, how does the “polymerase ribozyme fitness (log ratio)” value read?
Its value is ≤ -4.2.

For C32G U55G C96A A98U C103G G141A U148C, which “polymerase ribozyme fitness (log ratio)” value is on record?
Its value is ≤ -4.2.

Which “polymerase ribozyme fitness (log ratio)” value does the source give for A30C C54U C69A G70A A137C here?
The value was ≤ -4.2.

For A30U G70U A110U, which “polymerase ribozyme fitness (log ratio)” value is on record?
Its value is ≤ -4.2.

With C32A A41U G42A C75U C87G G92A A150C as the variant, how does the “polymerase ribozyme fitness (log ratio)” value read?
Its value is ≤ -4.2.

Which “polymerase ribozyme fitness (log ratio)” value does the source give for C32U C125U here?
The value was -2.22.

Which “polymerase ribozyme fitness (log ratio)” value does the source give for U31C G70U C85U A91G here?
The value was ≤ -4.2.

For C32G A89U C95U G152A, which “polymerase ribozyme fitness (log ratio)” value is on record?
The value was ≤ -4.2.

With A29U G50C C54A U55A G81C G86C C123U C125A G133C U148G as the variant, how does the “polymerase ribozyme fitness (log ratio)” value read?
Its value is ≤ -4.2.

Which “polymerase ribozyme fitness (log ratio)” value does the source give for U31G A41G U44A C54U C93U here?
Its value is ≤ -4.2.

With C32U G58A C87A G92U C116U U139C as the variant, how does the “polymerase ribozyme fitness (log ratio)” value read?
The value was ≤ -4.2.

With C32G U130A as the variant, how does the “polymerase ribozyme fitness (log ratio)” value read?
The value was ≤ -4.2.

For A30C A40U A52G C85A C87U A106U A120G, which “polymerase ribozyme fitness (log ratio)” value is on record?
The value was ≤ -4.2.

For C32U U61G, which “polymerase ribozyme fitness (log ratio)” value is on record?
The value was -3.73.

With A30G G70A as the variant, how does the “polymerase ribozyme fitness (log ratio)” value read?
The value was ≤ -4.2.

Which “polymerase ribozyme fitness (log ratio)” value does the source give for A30U U77A C87U A89U G94A A137C A147U here?
The value was ≤ -4.2.

With A30U G88C as the variant, how does the “polymerase ribozyme fitness (log ratio)” value read?
The value was ≤ -4.2.

Which “polymerase ribozyme fitness (log ratio)” value does the source give for C32G G70C here?
Its value is ≤ -4.2.

Which “polymerase ribozyme fitness (log ratio)” value does the source give for C32G G59C C75U C93U G100U C125G here?
Its value is ≤ -4.2.

For A30C G81C A138G U146A C149U, which “polymerase ribozyme fitness (log ratio)” value is on record?
The value was ≤ -4.2.

For A30G G74C A97C C129U C149G, which “polymerase ribozyme fitness (log ratio)” value is on record?
The value was ≤ -4.2.

Which “polymerase ribozyme fitness (log ratio)” value does the source give for A30G C75A G84A U90G A97U U134A U151G here?
Its value is ≤ -4.2.

For U31A G48U G50C A64U A110U A120G, which “polymerase ribozyme fitness (log ratio)” value is on record?
The value was ≤ -4.2.

For A30C U31A A52U G83A C132U, which “polymerase ribozyme fitness (log ratio)” value is on record?
Its value is ≤ -4.2.

With U31A U53A as the variant, how does the “polymerase ribozyme fitness (log ratio)” value read?
The value was -0.327.

With C32A U61A C75U G94A U102G A107G A147C as the variant, how does the “polymerase ribozyme fitness (log ratio)” value read?
The value was ≤ -4.2.

Which “polymerase ribozyme fitness (log ratio)” value does the source give for A30G C69U A91C A147C A150G here?
The value was ≤ -4.2.

With C32G U45C as the variant, how does the “polymerase ribozyme fitness (log ratio)” value read?
The value was -4.16.

Which “polymerase ribozyme fitness (log ratio)” value does the source give for C32G C51U G94U here?
Its value is ≤ -4.2.

For C32A G59C G68A A73G G83C U130C A138G, which “polymerase ribozyme fitness (log ratio)” value is on record?
The value was ≤ -4.2.

For A30U U56A G94A G112C A115U C132U, which “polymerase ribozyme fitness (log ratio)” value is on record?
The value was ≤ -4.2.
